According to patent US11285169B2, “Methods for modulating chemotherapeutic cytotoxicity” (The United States of America, as represented by the …, priority 2013, dated 2022):
Structures can show the parent of a compound that is named as a salt. Where two headings read alike, the source gives them in different places.

Key:
[1] = test system: WT Jurkat cells; settings: for AC50: read-out: AC50 (μM) WT, cell viability
[2] = test system: CD47 deficient (CD47 KO) Jurkat T cells; settings: for Δ LogAC50 CD47KO-WT: log AC50 difference CD47 KO minus WT; for AC50: read-out: AC50 (μM) CD47 KO, cell viability
[3] = WT Jurkat cells, 48 hours, 10^-9 to 10^-4 M, CellTiter-Glo
[4] = CD47 KO Jurkat T cells, 48 hours, 10^-9 to 10^-4 M, CellTiter-Glo
[5] = difference CD47 KO minus WT Jurkat cells, 48 hours
[6] = CD47 KO Jurkat T cells, 48 hours

Compound | Maximal Response WT (RLU) [1, 3] [RLU] | Maximal Response CD47 KO (RLU) [2, 4] [RLU] | further results
CC(C)c1ccccc1Cc1cc(C(=O)Nc2ccc(S(=O)(=O)c3ccccc3C(C)(C)C)cc2)c(O)c(O)c1O [TW-37] | 13.439 | 34.779 | Δ Maximal Response CD47KO-WT [2, 5]: 21.34
CC1(C)O[C@@H]2C[C@H]3[C@@H]4CCC5=CC(=O)C=C[C@]5(C)[C@@]4(F)[C@@H](O)C[C@]3(C)[C@]2(C(=O)CO)O1 [Triamcinolone acetonide] | 71.308 | 99.996 | 
COc1ccc(/C=C\c2cc(OC)c(OC)c(OC)c2)cc1NC(=O)[C@@H](N)CO [Ombrabulin] | 9.585 | 38.265 | 
CCCCOc1ccc(CC(=O)NO)cc1 [Bufexamac] | 34.171 | 80.782 | 
Nc1nc(=O)n([C@H]2C[C@H](O)[C@@H](CO)O2)cc1F [NSC-48006] | 20.924 | 46.143 | Δ Maximal Response CD47KO-WT [2, 5]: 25.219
Cn1c(CCCC(=O)O)nc2cc(N(CCCl)CCCl)ccc21 [Bendamustine] |  |  | Maximal Response WT (RLU) [1]: 25.146 RLU; Maximal Response CD47 KO (RLU) [2]: 122.856 RLU; sensitivity of CD47-expressing versus deficient Jurkat T cells ([2]; 48 hours): differing sensitivities
COc1ccc(C(=O)CC2(O)C(=O)Nc3c(Cl)ccc(Cl)c32)cc1 (stereo not shown) [YK-4-279] | 14.615 | 38.318 | AC50 ([1]; WT Jurkat cells, 48 hours): 0.166 µM; Δ Maximal Response CD47KO-WT [2, 5]: 23.703; Δ LogAC50 CD47KO-WT [2]: 0.75; AC50 [2, 6]: 0.935 µM
CN(C)c1ccc(C(=O)NCCCCCCC(=O)NO)cc1 [M344] |  |  | AC50 ([1]; WT Jurkat cells, 48 hours): 0.166 µM; Δ LogAC50 CD47KO-WT [2]: 0.5; AC50 [2, 6]: 0.526 µM
C=C1C[C@@H]2[C@H](CC[C@]3(C)C(=O)CC[C@@H]23)[C@@]2(C)C=CC(=O)C=C12 [Exemestane] |  |  | Maximal Response WT (RLU) ([1]; 48 h): 48.822 RLU; Maximal Response CD47 KO (RLU) ([2]; 48 h): 77.388 RLU; Δ Maximal Response CD47KO-WT ([2]; 48 h): 28.566
CN(C)CC(C)(C)CNc1nn2c(-c3ccccc3)nnc2cc1C1CCC1 [Akt-l-1] | 10.094 | 72.553 | AC50 ([1]; WT Jurkat cells, 48 hours): 2.35 µM; Δ Maximal Response CD47KO-WT [2, 5]: 62.459; Δ LogAC50 CD47KO-WT [2]: 0.85; AC50 [2, 6]: 16.6 µM
CS(=O)(=O)N1CCc2c(-c3cnc(N)nc3)nc(N3CCOCC3)nc21 [CH-5132799] | 10.205 | 32.385 | 
CC[C@@]1(O)C(=O)OCc2c1cc1n(c2=O)Cc2cc3cc(O)ccc3nc2-1 [10-hydroxy-camptothecin] | 9.333 | 33.266 | AC50 ([1]; WT Jurkat cells, 48 hours): 0.0209 µM; cytotoxicity in CD47 deficient versus wild-type Jurkat cells (FIGS. 14, 15) ([2]; 48 hours, increasing concentrations): protected; Δ Maximal Response CD47KO-WT [2, 5]: 23.933; Δ LogAC50 CD47KO-WT [2]: 1.2; AC50 [2, 6]: 0.332 µM
CN(C)S(=O)(=O)c1ccc2c(c1)/C(=C/c1cc3c([nH]1)CCCC3)C(=O)N2 [SU-6656] | 39.636 | 72.735 | 
O=c1[nH]c(=O)n([C@H]2C[C@H](O)[C@@H](CO)O2)cc1C(F)(F)F [Trifluridine] | 10.459 | 57.881 | 
c1ccc(-c2oc3ncnc(NC[C@@H]4CCCO4)c3c2-c2ccccc2)cc1 [AIM-100] |  |  | AC50 ([1]; WT Jurkat cells, 48 hours): 4.18 µM; Δ LogAC50 CD47KO-WT [2]: 0.6; AC50 [2, 6]: 16.6 µM
CC(C)[C@H](C(=O)Nc1ccc(C(=O)NO)cc1)c1ccccc1 [AR-42] |  |  | AC50 ([1]; WT Jurkat cells, 48 hours): 0.296 µM; Δ LogAC50 CD47KO-WT [2]: 0.5; AC50 [2, 6]: 0.935 µM
NC(=O)c1ncn([C@@H]2O[C@H](CO)[C@@H](O)[C@H]2O)n1 [Ribavirin] | 82.278 | 113.259 | 

Compound | Maximal Response WT (RLU) [1, 3] [RLU] | Maximal Response CD47 KO (RLU) [2, 4] [RLU] | further results
O=c1[nH]c(=O)n([C@H]2C[C@H](O)[C@@H](CO)O2)cc1I [Idoxuridine] | 79.933 | 101.516 | 
C[C@H]1[C@@H](CC(C[C@H]2O[C@@H]3O[C@]4(C)CC[C@H]5[C@H](C)CC[C@@H]([C@H]2C)[C@@]35OO4)CS(=O)(=O)c2ccc(COC(=O)N(C)C)cc2)O[C@@H]2O[C@]3(C)CC[C@H]4[C@H](C)CC[C@@H]1[C@@]24OO3 (stereo partly shown) [ASR-isobudimer-SO2Ph-4-CH2OC(O)NMe2] | 27.802 | 50.082 | Δ Maximal Response CD47KO-WT [2, 5]: 22.28
O=C1CSC(=O)N1C(CCc1ccncc1)COc1ccc(-c2cccc([N+](=O)[O-])c2)cc1 (stereo not shown) [AZ 11645373] | 3.025 | 35.262 | Δ Maximal Response CD47KO-WT [2, 5]: 32.237
O=C(O)c1cccc(-c2noc(-c3ccccc3F)n2)c1 [PTC-124] | 77.858 | 109.291 | 
COc1nc(C)nc(Cl)c1N=C1NCCN1 [Moxonidine hydrochloride hydrate] | 34.088 | 66.695 | 
CC(=O)O[C@H]1C(=O)[C@@]2(C)[C@H]([C@H](OC(=O)c3ccccc3)[C@]3(O)C[C@H](OC(=O)[C@H](O)[C@@H](NC(=O)c4ccccc4)c4ccccc4)C(C)=C1C3(C)C)[C@]1(OC(C)=O)CO[C@@H]1C[C@@H]2O [Paclitaxel] | 19.451 | 55.703 | 
NC1(c2ccc(-c3nc4ccn5c(=O)[nH]nc5c4cc3-c3ccccc3)cc2)CCC1 [MK-2206] | 1.791 | 30.241 | 
Cn1cc(C2=C(c3cn(C4CCN(Cc5ccccn5)CC4)c4ccccc34)C(=O)NC2=O)c2ccccc21 [Enzastaurin] | 13.534 | 40.303 | 
COCCCOc1ccnc(C[S+]([O-])c2nc3ccccc3[nH]2)c1C (stereo not shown) [Rabeprazole] | 92.342 | 115.444 | 
CN1CC[C@H](c2c(O)cc(O)c3c(=O)cc(-c4ccccc4Cl)oc23)[C@H](O)C1 [Flavopiridol???] | 2.486 | 37.554 | Δ Maximal Response CD47KO-WT [2, 5]: 35.068
C[C@]12CC[C@@H]3c4ccc(O)cc4CC[C@H]3[C@@H]1C[C@@H](O)[C@@H]2O [Estriol] | 72.648 | 120.332 | 
Nc1nc(Nc2ccc(S(N)(=O)=O)cc2)nn1C(=O)c1c(F)cccc1F [JNJ-7706621] | 4.83 | 44.022 | 
Carboplatin |  |  | Maximal Response WT (RLU) [1]: 118.461 RLU; Maximal Response CD47 KO (RLU) [2]: 152.695 RLU; Δ Maximal Response CD47KO-WT [2]: 34.234
CC1(C)CNc2cc(NC(=O)c3cccnc3NCc3ccncc3)ccc21 [Motesanib] | 21.286 | 68.692 | 
CSc1cccc(Nc2ncc3cc(-c4c(Cl)cccc4Cl)c(=O)n(C)c3n2)c1 [PD-173955] | 8.871 | 35.348 | Δ Maximal Response CD47KO-WT [2, 5]: 26.477
C[C@H]1[C@H](C)CC[C@]2(C(=O)O)CC[C@]3(C)C(=CC[C@@H]4[C@@]5(C)C[C@@H](O)[C@H](O)[C@@](C)(CO)[C@@H]5CC[C@]43C)[C@H]12 [Asiatic acid] | 61.399 | 87.171 | 
